Assay results from the supplement of paper PMC4604168 (melanoma cell lines).
The list shows a part of the results. Repeats are few or missing, and single values can be far off.

Assays:
Test in all cases: cell count relative to DMSO control; melanoma cells; higher = more viable cells
Conditions in all cases: library dose: low library concentration; 72 h
MZ2-MEL = test system: MZ2-MEL
MeWo = test system: MeWo
RPMI7951 = test system: RPMI7951
RVH-421 = test system: RVH-421
SkMel28 = test system: SkMel28
SkMel2 = test system: SkMel2
SkMel30 = test system: SkMel30
SkMel5 = test system: SkMel5
UACC257 = test system: UACC257
UACC62 = test system: UACC62
WM115 = test system: WM115
WM1716 = test system: WM1716
WM1745 = test system: WM1745
WM3526 = test system: WM3526
WM3619 = test system: WM3619
WM451Lu = test system: WM451Lu
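Note: cell number obtained by counting DAPI-stained nuclei in high-throughput microscope images with image analysis software, screen run in 1,536-well plates.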

## C[C@]1(O)C[C@@H](c2nc(-c3ccc4ccc(-c5ccccc5)nc4c3)c3c(N)nccn32)C1 + c1cc(-c2cnn3cc(-c4ccc(OCCN5CCCCC5)cc4)cnc23)ccn1 [Dorsomorphin] (first compound 0.4 µM, partner dose 0.4 µM)
MZ2-MEL
  cell count: 92%
MeWo
  cell count: 91.9%
RPMI7951
  cell count: 102%
RVH-421
  cell count: 89.5%
SkMel28
  cell count: 89.1%
SkMel2
  cell count: 94.3%
SkMel30
  cell count: 96.9%
SkMel5
  cell count: 61.8%
UACC257
  cell count: 82.9%
UACC62
  cell count: 101%
WM115
  cell count: 95.3%
WM1716
  cell count: 104%
WM1745
  cell count: 78.4%
WM3526
  cell count: 88.1%
WM3619
  cell count: 82.6%
WM451Lu
  cell count: 62.2%

## CCN(CC)CCNC(=O)c1c(C)[nH]c(/C=C2\C(=O)Nc3ccc(F)cc32)c1C [sunitinib] + C=CCn1c(=O)c2cnc(Nc3ccc(N4CCN(C)CC4)cc3)nc2n1-c1cccc(C(C)(C)O)n1 [MK1775] (first compound 0.4 µM, partner dose 0.02 µM)
MZ2-MEL
  cell count: 101%
MeWo
  cell count: 84.7%
RPMI7951
  cell count: 114%
RVH-421
  cell count: 120%
SkMel28
  cell count: 82.4%
SkMel2
  cell count: 94.6%
SkMel30
  cell count: 59.1%
SkMel5
  cell count: 96%
UACC257
  cell count: 75.3%
UACC62
  cell count: 67.1%
WM115
  cell count: 94%
WM1716
  cell count: 111%
WM1745
  cell count: 78.9%
WM3526
  cell count: 72.6%
WM3619
  cell count: 99%
WM451Lu
  cell count: 126%

## Cn1cnc2c(F)c(Nc3ccc(Br)cc3Cl)c(C(=O)NOCCO)cc21 [selumetinib] + COc1cc(Nc2ncc(F)c(Nc3ccc4c(n3)NC(=O)C(C)(C)O4)n2)cc(OC)c1OC [Tamatinib] (first compound 0.015 µM, partner dose 0.4 µM)
MZ2-MEL
  cell count: 71.3%
MeWo
  cell count: 73.6%
RPMI7951
  cell count: 93.4%
RVH-421
  cell count: 90.3%
SkMel28
  cell count: 80.4%
SkMel2
  cell count: 71.7%
SkMel30
  cell count: 42.1%
SkMel5
  cell count: 96.8%
UACC257
  cell count: 53.4%
UACC62
  cell count: 69.8%
WM115
  cell count: 78.8%
WM1716
  cell count: 94.2%
WM1745
  cell count: 55.5%
WM3526
  cell count: 60.2%
WM3619
  cell count: 79.2%
WM451Lu
  cell count: 92.4%

## COc1cc([C@@H]2c3cc4c(cc3[C@@H](O[C@@H]3O[C@@H]5CO[C@@H](C)O[C@H]5[C@H](O)[C@H]3O)[C@H]3COC(=O)[C@H]23)OCO4)cc(OC)c1O [etoposide] + Cc1ccc(NC(=O)c2cccc(N(C)C)c2)cc1NC(=O)c1ccc(O)cc1 [ZM336372] (first compound 0.02 µM, partner dose 2 µM)
MZ2-MEL
  cell count: 72.6%
MeWo
  cell count: 97.1%
RPMI7951
  cell count: 87.1%
RVH-421
  cell count: 92.8%
SkMel28
  cell count: 97.5%
SkMel2
  cell count: 96.5%
SkMel30
  cell count: 96.2%
SkMel5
  cell count: 103%
UACC257
  cell count: 103%
UACC62
  cell count: 85.1%
WM115
  cell count: 102%
WM1716
  cell count: 105%
WM1745
  cell count: 88.1%
WM3526
  cell count: 109%
WM3619
  cell count: 93.2%
WM451Lu
  cell count: 95.6%

## Cn1cnc2c(F)c(Nc3ccc(Br)cc3Cl)c(C(=O)NOCCO)cc21 [selumetinib] + c1cc(-c2cnn3cc(-c4ccc(OCCN5CCCCC5)cc4)cnc23)ccn1 [Dorsomorphin] (first compound 0.015 µM, partner dose 0.4 µM)
MZ2-MEL
  cell count: 97.1%
MeWo
  cell count: 105%
RPMI7951
  cell count: 98.9%
RVH-421
  cell count: 80.5%
SkMel28
  cell count: 86.2%
SkMel2
  cell count: 88.4%
SkMel30
  cell count: 84.9%
SkMel5
  cell count: 118%
UACC257
  cell count: 104%
UACC62
  cell count: 85.9%
WM115
  cell count: 105%
WM1716
  cell count: 117%
WM1745
  cell count: 84.2%
WM3526
  cell count: 84.9%
WM3619
  cell count: 92.2%
WM451Lu
  cell count: 94.8%

## COc1cc([C@@H]2c3cc4c(cc3[C@@H](O[C@@H]3O[C@@H]5CO[C@@H](C)O[C@H]5[C@H](O)[C@H]3O)[C@H]3COC(=O)[C@H]23)OCO4)cc(OC)c1O [etoposide] + Cc1cc(N2CCOCC2)cc2[nH]c(-c3c(NC[C@@H](O)c4cccc(Cl)c4)cc[nH]c3=O)nc12 [BMS536924] (first compound 0.02 µM, partner dose 0.2 µM)
MZ2-MEL
  cell count: 83.3%
MeWo
  cell count: 81.1%
RPMI7951
  cell count: 91.1%
RVH-421
  cell count: 76.8%
SkMel28
  cell count: 76.4%
SkMel2
  cell count: 82.6%
SkMel30
  cell count: 81%
SkMel5
  cell count: 93.8%
UACC257
  cell count: 85.2%
UACC62
  cell count: 79.3%
WM115
  cell count: 97.5%
WM1716
  cell count: 91%
WM1745
  cell count: 79%
WM3526
  cell count: 86.2%
WM3619
  cell count: 81.4%
WM451Lu
  cell count: 90.3%

## C[C@]1(O)C[C@@H](c2nc(-c3ccc4ccc(-c5ccccc5)nc4c3)c3c(N)nccn32)C1 + CC(C)(C)c1cnc(CSc2cnc(NC(=O)C3CCNCC3)s2)o1 [SNS-032] (first compound 0.4 µM, partner dose 0.01 µM)
MZ2-MEL
  cell count: 88.8%
MeWo
  cell count: 95.2%
RPMI7951
  cell count: 92%
RVH-421
  cell count: 98.2%
SkMel28
  cell count: 102%
SkMel2
  cell count: 77.6%
SkMel30
  cell count: 91.5%
SkMel5
  cell count: 90.5%
UACC257
  cell count: 92.5%
UACC62
  cell count: 77.5%
WM115
  cell count: 97.9%
WM1716
  cell count: 94.6%
WM1745
  cell count: 72%
WM3526
  cell count: 84.3%
WM3619
  cell count: 92.1%
WM451Lu
  cell count: 87.6%

## C[C@]1(O)C[C@@H](c2nc(-c3ccc4ccc(-c5ccccc5)nc4c3)c3c(N)nccn32)C1 + Oc1nc(-c2ccc(C(F)(F)F)cc2)nc2c1CSCC2 [XAV939] (first compound 0.4 µM, partner dose 2 µM)
MZ2-MEL
  cell count: 91.8%
MeWo
  cell count: 81.1%
RPMI7951
  cell count: 95.2%
RVH-421
  cell count: 106%
SkMel28
  cell count: 81.6%
SkMel2
  cell count: 97.3%
SkMel30
  cell count: 96.5%
SkMel5
  cell count: 72.9%
UACC257
  cell count: 92.3%
UACC62
  cell count: 84.3%
WM115
  cell count: 100%
WM1716
  cell count: 65.6%
WM1745
  cell count: 71.7%
WM3526
  cell count: 78%
WM3619
  cell count: 102%
WM451Lu
  cell count: 93.1%

## Cn1cnc2c(F)c(Nc3ccc(Br)cc3Cl)c(C(=O)NOCCO)cc21 [selumetinib] + Cc1ccc(NC(=O)c2cccc(N(C)C)c2)cc1NC(=O)c1ccc(O)cc1 [ZM336372] (first compound 0.015 µM, partner dose 2 µM)
MZ2-MEL
  cell count: 125%
MeWo
  cell count: 98.2%
RPMI7951
  cell count: 124%
RVH-421
  cell count: 65.6%
SkMel28
  cell count: 75.9%
SkMel2
  cell count: 85.4%
SkMel30
  cell count: 110%
SkMel5
  cell count: 109%
UACC257
  cell count: 72.4%
UACC62
  cell count: 85.1%
WM115
  cell count: 88.4%
WM1716
  cell count: 112%
WM1745
  cell count: 85.8%
WM3526
  cell count: 85.8%
WM3619
  cell count: 162%
WM451Lu
  cell count: 113%
